Consider 22 molecules from publication PMC12136788.

First the molecules themselves.
B1: chr1:127303955:127303956:-_ENSMUSG00000026341_ENSMUST00000027579|perfect_dup|FALSE|FALSE (ssRNA)
RNA: GGGAGUUCUACAGUCCGACGAUCUAUUACCGUACCGGUCAACGUCCGUUCUCCUACUUGUCUUGAGGUCCAAGAUGCAGCUAAGGCAAGAACAGCCUGCACAGCAAUGUACAAGCCUGGAACAUUGAAGGACUCAAACAUUAUCAACAGAGGAUUGAGCAUCA
B2: chr16:38090358:38090359:+_ENSMUSG00000022812_ENSMUST00000023507|mus_mus|FALSE|FALSE (ssRNA)
RNA: GGGAGUUCUACAGUCCGACGAUCUCUUCAAGACAGAUCGGUACGGAUAUUUAACACAUAGAUGAUUUAGAGCUGGGAGAAAAAUACAAUUCUUUCACCUCCCUUUCCUGGAAGAGGAGAAAAAGGGUGGAGUGGAAUCCUUAACAACAGAGGAUUGAGCAUCA
B3: 111860438_111860558_452_CDS_ENSG00000148700_ENST00000277900|human|control|control (ssRNA)
RNA: GGGAGUUCUACAGUCCGACGAUCGAAGUCUUGUCGUAGAUCAGGAGACAUGUUCCUCUCCCUAAUGUAUUCUGGGUCAUUUUCAUUGAUGCGGUCAAAAUAUCUCUCUUUGUGAGGCAUGCUGGGAGGAGGAGGAGUGGUAAUCAACAGAGGAUUGAGCAUCA
B4: chr5:116376479:116376480:+_ENSMUSG00000029516_ENSMUST00000051704|mus_hu|motif|central (ssRNA)
RNA: GGGAGUUCUACAGUCCGACGAUCCUGCUCCAGGAGGGAUCUCUGAGUCUCAGAGGCCUUCAGCUCCACCUCCUUCUGACGGAGCACAGCCUCCACCUCUGACACUCUCCGAUGUAACCGGGUCAUUUCCUGCUCCAUCUUGUGCAACAGAGGAUUGAGCAUCA
B5: chr9:82769708:82769709:-_ENSMUSG00000032253_ENSMUST00000034787|mus_mus|FALSE|FALSE (ssRNA)
RNA: GGGAGUUCUACAGUCCGACGAUCAAAAGCUUUUGUGGCUGAUGAUGUAGAGGGCUGCUCGGUGACAACUGGAUCUACAGCUACACGGUUGCUCCUAGUUCGAACCACAGAACUGGAUUCUGGUUUACCAUUCAUUUGCGCAGCCAACAGAGGAUUGAGCAUCA
B6: chr11:70340070:70340071:+_ENSMUSG00000018286_ENSMUST00000018430|mus_hu|FALSE|FALSE (ssRNA)
RNA: GGGAGUUCUACAGUCCGACGAUCCAGGUCUUCCCGGUAUCGGUAACACAUCUCCUUAAAGAGGCUGGCUGCUGUGUGGACCAGUGGAGGCUCAUUCAGUUCAAUGCUGUGGAAACCGAGCUGGUAGGUGACAGCAUCAGCUACCAACAGAGGAUUGAGCAUCA
B7: chr3:149686237:149686238:-_ENSG00000070087_ENST00000452853|perfect_dup|motif|central (ssRNA)
RNA: GGGAGUUCUACAGUCCGACGAUCCUCCCCACCUUGACUCUUUGUCCGGAUGUCCAUUGUGCAGUCACCAUCGACGUAUAGACGGUCUCUGAUCACUGAGCAUUUCUUCGCGCCAAGAGUCAAACCGUUGGUAAAGAAACCUUCCAACAGAGGAUUGAGCAUCA
B8: chr8:22473583:22473584:+_ENSG00000158941_ENST00000389279|hu_hu|FALSE|FALSE (ssRNA)
RNA: GGGAGUUCUACAGUCCGACGAUCAGGUUCAGGUGGGGACACGACCUUUUCAGGAAGGCUCAGUAGCAUCUUAUAAACUCUAUAGCCAAAAUCCCUCUGGAGCAUCUCCAGAAACAGCUCGGCCAGCACCAUCACCUCAAAAGACAACAGAGGAUUGAGCAUCA
B9: 20771871_20771991_4555_CDS_ENSMUSG00000036591_ENSMUST00000173194|mouse|control|control (ssRNA)
RNA: GGGAGUUCUACAGUCCGACGAUCGAACACACUGUCCAGCUCAUCCUCAGAGCUGCUGGGCUGGGCUUUCUCUUUCGGCUUUUUCCUCUUGCGACUGGCAGCUGCGAAGAUGGAGGAUACAAGCAGUUCCCUGCUAUACUGAUCCAACAGAGGAUUGAGCAUCA
B10: 58348954_58349233_811_CDS_ENSMUSG00000027810_ENSMUST00000029387|mouse|control|control (ssRNA)
RNA: GGGAGUUCUACAGUCCGACGAUCUGCCUGAGGUCCGGCAAAGUUGGGAUACUGAUACAGUCGAACAAAUGAGGGGGCACCUUUACUUCCUGGGACAUAAACUGCCACCUUAUAAGGUUGGGUUCCAGGUGAUAAAUUAAAGUCCAACAGAGGAUUGAGCAUCA
B11: chr14:65392728:65392729:+_ENSG00000258289_ENST00000359118|hu_hu|motif|central (ssRNA)
RNA: GGGAGUUCUACAGUCCGACGAUCGUAUCUUCGGCUUUGCCGCAUAACAGACACAGCAUGGUAUACUCGAUCAUAGGUAACGGUUUCUUCUCCAUCUUCUUCUUUCAAGGAUUUGUUUGUGAUCAGCAUAAAAUCCCGCUUACUCAACAGAGGAUUGAGCAUCA
B12: chr6:106728040:106728041:+_ENSMUSG00000013736_ENSMUST00000057578|mus_hu|FALSE|FALSE (ssRNA)
RNA: GGGAGUUCUACAGUCCGACGAUCAGGAGCCACAUCAAGAUCAUAGAUAAGGUGAAUCAAAUGAUUUACAUGGUUACCAACAAGAAUUUUUUUCAGUUCCACCCAAAUCCUUUCUCCUGAUAUUCCAGCCAAGCCUUUUGCAUUCAACAGAGGAUUGAGCAUCA
B13: chr3:184044699:184044700:+_ENSG00000114867_ENST00000411531|hu_mus|FALSE|FALSE (ssRNA)
RNA: GGGAGUUCUACAGUCCGACGAUCACGUCUGUUAUCUGUGUUCUCUGCGGGUAAUGUUUGUUGAAGAGCAGAAAAGCGAUUCAAGGUAGCUGGACGAGUAGCUUCCGAUGCUGUGUCUGAGGGCUUGGCUCCUGAGCCCCCACUCAACAGAGGAUUGAGCAUCA
B14: chr5:118832277:118832278:+_ENSG00000133835_ENST00000256216|hu_mus|motif|central (ssRNA)
RNA: GGGAGUUCUACAGUCCGACGAUCUGACGUGGCUGCAGGUGCCGCGUGACUGGUACGGUUUGGUGAGAUUCCUUCUGAAUCGGCCUUAUGUAAAACUUCGACUAUACCACCUGUUGAUUCUUGAAUGGUCUGCGGCUUGCUGGCCAACAGAGGAUUGAGCAUCA
B15: chr4:144460044:144460045:+_ENSG00000153147_ENST00000283131|hu_mus|hu_hu_hu_mus_False|88_88 (ssRNA)
RNA: GGGAGUUCUACAGUCCGACGAUCACGGUCCAUAGCCUGAAGAUCAACUUGGGGAUUCCAAUCUGAGUCAUAUAAAAUGACUACAUCAGCAGUUGCAAGAUUGAUGCCCAGACCACCAGCACGUGUGCUUAGCAUAAAUACAAACAACAGAGGAUUGAGCAUCA
B16: chr6:41757443:41757444:+_ENSG00000214736_ENST00000398881|hu_mus|hu_hu_hu_mus_False|28_88 (ssRNA)
RNA: GGGAGUUCUACAGUCCGACGAUCGAACCGUGCAGAGGCAACAUCUCGGAAUUCUGCGGGGGAUGGGGGGGCAGUGGGGGGGGGUUCAGGCAAGGAGAGGGAGUCAACCCAUCUGAACACUCAGGUAGGAUCUUGUGGUCACAGCAACAGAGGAUUGAGCAUCA
B17: chr3:179287964:179287965:+_ENSG00000136518_ENST00000429709|hu_hu|hu_hu_hu_mus_True|58_58 (ssRNA)
RNA: GGGAGUUCUACAGUCCGACGAUCCUUGAGUGGUGAGAUGGCCUCCAUGUUCUCCCUGGGCACGCGGAGGGCAUUGGUAUCUAUGUAGUAGGUGGGCCCGCCCUGCUUGCCUUUGUCACCAUCAAUCUCCAUCAUUGUACUUCCCAACAGAGGAUUGAGCAUCA
B18: chr4:148551591:148551592:-_ENSMUSG00000063077_ENSMUST00000060537|mus_hu|mus_mus_mus_hu_False|68_108 (ssRNA)
RNA: GGGAGUUCUACAGUCCGACGAUCACCUUACAAAAUUAAAUAUCCCUGUAAAUUAGACAAUAAGCAGCAGGUAACAAAGUCUUUGCUUUGGAAUAUGUGCCAGGAAAAGUCAUCUUGUUUUUAGAUCUCAAGAGACAGUUCACACAACAGAGGAUUGAGCAUCA
B19: chr6:13786967:13786968:-_ENSMUSG00000048216_ENSMUST00000115492|mus_mus|FALSE|FALSE (ssRNA)
RNA: GGGAGUUCUACAGUCCGACGAUCGGAGGAUAAGGAAACAGCCUCAGUCAAGUCUCAUGAUCUAGAUAUAAGAACAAGGAAAAGAUAGAUCCAUACAUUUUACUGAAAAUGUAAUCCACAAAGAGAUCAGAUCCGAUCUGUGGCCAACAGAGGAUUGAGCAUCA
B20: 30996462_30996582_998_CDS_ENSMUSG00000027660_ENSMUST00000118470|mouse|control|control (ssRNA)
RNA: GGGAGUUCUACAGUCCGACGAUCCUGGGAAUAUCGAGCAGAAAAUGCUGCUGGUCCACCCAAAGAGCUCUGACUGCUUAAGUGGAAUUGUGCCAGCGUGUGUUUCAGACUGGGGUUUAAAUUUAAAGUUUCAGGUAGAGAAACCAACAGAGGAUUGAGCAUCA
B21: chr4:148551591:148551592:-_ENSMUSG00000063077_ENSMUST00000060537|mus_hu|mus_mus_mus_hu_False|28_78 (ssRNA)
RNA: B18 RNA with U28G, U60G, U71C, G108A, C113G, G116U
B22: chr7:135612270:135612271:-_ENSG00000105887_ENST00000393085|hu_mus|hu_hu_hu_mus_False|18_18 (ssRNA)
RNA: GGGAGUUCUACAGUCCGACGAUCGUUUUUUUCUGAGAUGUUAAAUAGUACUUCAGUGGAAAACAAAACUUAACCUUUUAUUAAUGCGUGUUGUACCAAAAGCAGACAUUUUAGCUUGCUUCCUUUAAAAAUAUUAACAUUAAGCAACAGAGGAUUGAGCAUCA

Changes are numbered by the printed parent chain. The list shows a part of the results.

The test addresses T1, UNK ZnF1-3 (human, UniProt Q9C0B0 31-174).
T1 sequence: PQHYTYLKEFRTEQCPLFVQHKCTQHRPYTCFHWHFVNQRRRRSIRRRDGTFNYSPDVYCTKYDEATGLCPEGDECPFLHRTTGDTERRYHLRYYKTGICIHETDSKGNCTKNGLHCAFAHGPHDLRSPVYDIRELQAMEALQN
As to the kind of experiment: nsRBNS (natural sequence RNA bind-n-seq); RBNS binding buffer (assumed for nsRBNS): 25 mM Tris pH 7.5, 150 mM KCl, 3 mM MgCl2, 0.01% Triton X-100, 500 ug/ml BSA, 20 U/ml SUPERase-In, 4 C; UNK is unkempt and MSI1 is Musashi-1; names of the RNAs are library labels; protein concentration not given here; high values mean tight binding.
B1 had a binding signal of 0.988 enrichment R.
The same measure for B2: 1.18 enrichment R; for B3: 1.13 enrichment R.
The same measure for B4: 0.463 enrichment R.
The same measure for B5: 0.8 enrichment R.
B6 yielded a binding signal of 0.855 enrichment R.
The same measure for B7: 1.09 enrichment R; for B8: 0.725 enrichment R.
The same measure for B9: 0.636 enrichment R; for B10: 1.25 enrichment R.
As for B11, the binding signal came to 0.625 enrichment R.
For B12 the value was 1.25 enrichment R.
Take B13: the binding signal turned out to be 0.839 enrichment R.
In turn, B14 came in with a binding signal of 0.673 enrichment R.
For B15 the value was 1.25 enrichment R; for B16, 1.07 enrichment R.
Take B17: the binding signal is 0.646 enrichment R.
For B18 the value was 1.07 enrichment R; for B19, 1.28 enrichment R.
The same measure for B20: 1.28 enrichment R; for B21: 1.26 enrichment R; for B22: 0.777 enrichment R.
